The values that follow come from PubChem BioAssay AID1645887 (National Center for Advancing Translational Sciences (NCATS), 2021).

“And” between values parts separate entries of the source, which are not always exact repeats. Identical values can stand only once. The whole screen tested about 16,000 compounds, of which about 40 (0.2%) were called active. Not shown: some 1% with an inconclusive outcome. Calls follow the shape of the dose curve; as a rule, active = well fitted activation curve with a large enough effect; inconclusive = small, poorly fitted or top-dose-only effect, or another doubt; inactive = no such curve, though single readings can be large or run the other way. Some of the results follow.
% is scaled to controls: 0 for no effect and ±100 for the full control effect.

Sequence of UniProt Q8WZA2 (Q8WZA2 whole entry, looked up): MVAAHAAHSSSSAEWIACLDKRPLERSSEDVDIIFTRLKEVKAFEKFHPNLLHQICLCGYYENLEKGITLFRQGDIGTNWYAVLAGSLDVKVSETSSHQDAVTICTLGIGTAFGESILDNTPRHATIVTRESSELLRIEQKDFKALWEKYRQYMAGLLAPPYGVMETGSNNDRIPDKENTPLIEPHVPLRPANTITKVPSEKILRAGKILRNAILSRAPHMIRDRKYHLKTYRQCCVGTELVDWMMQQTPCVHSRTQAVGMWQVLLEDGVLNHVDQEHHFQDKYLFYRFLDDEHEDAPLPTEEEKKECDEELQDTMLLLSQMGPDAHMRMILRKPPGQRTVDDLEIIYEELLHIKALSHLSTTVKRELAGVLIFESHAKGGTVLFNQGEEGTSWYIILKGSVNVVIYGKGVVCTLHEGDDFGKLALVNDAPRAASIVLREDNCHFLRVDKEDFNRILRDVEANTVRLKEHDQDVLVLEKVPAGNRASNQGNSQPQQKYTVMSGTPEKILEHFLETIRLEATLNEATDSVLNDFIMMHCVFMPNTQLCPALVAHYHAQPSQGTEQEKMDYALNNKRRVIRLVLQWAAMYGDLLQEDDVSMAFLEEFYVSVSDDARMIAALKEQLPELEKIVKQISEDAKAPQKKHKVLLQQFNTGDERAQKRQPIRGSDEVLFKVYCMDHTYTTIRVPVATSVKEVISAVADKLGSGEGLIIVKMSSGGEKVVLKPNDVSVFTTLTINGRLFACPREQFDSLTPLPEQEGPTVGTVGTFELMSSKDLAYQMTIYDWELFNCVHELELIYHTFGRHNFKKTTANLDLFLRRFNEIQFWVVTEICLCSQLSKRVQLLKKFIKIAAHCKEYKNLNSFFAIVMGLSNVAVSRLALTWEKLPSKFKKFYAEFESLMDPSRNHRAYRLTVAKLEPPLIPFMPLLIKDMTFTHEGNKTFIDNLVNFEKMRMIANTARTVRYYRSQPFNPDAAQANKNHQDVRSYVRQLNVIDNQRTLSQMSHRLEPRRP

The target of this assay is Rap guanine nucleotide exchange factor 4 (Homo sapiens) (UniProt Q8WZA2). The assay can be described thus: Validation qHTS for agonist of cAMP-regulated guanine nucleotide exchange factor 4 (EPAC2).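 Also: exchange makes BODIPY-GDP fluorescence drop when released from Rap1B; series mostly up to about 150 µM.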 To be noted: EPAC2 Rap1B BODIPY-GDP exchange, fluorescence; activation: hits give high values. In outline:
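Signal normalized against 6.5 mM cAMP as agonist control. Mix of EPAC2 (100 nM), RAP1B-BODIPY-GDP (250 nM) and GDP (50 uM) was read kinetically at 480/540 nm, every 5 min over 30 min, after 5 min room-temperature incubation with compound.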
As to `CCCCCCCC/C=C\CCCCCCCC(=O)OC[C@H](CO)OC(C)=O`, the activation is inactive: -29.7%.

As to `Cc1ccnc2ccc(N)cc12`, the activation was inactive: -20.7%. For `CCOC(=O)COc1ccc2c(=O)cc(-c3ccccc3)oc2c1`, the activation was inactive: -10.9% and inactive: 4.28%. With `C/C(N[C@@H]1CSCC1O)=C1/C(=O)CC2[C@@H]1C2(C)C` (stereo partly specified), the activation was inactive: -5.38%.

With `COc1c(CC(=O)c2cc3c(cc2O)OC(C)(C)C(O)C3)ccc2c1C=CC(C)(C)O2` (stereo unspecified), the activation is inactive: -4.6%. Under `O=C(O)c1nc2cc(Cl)c(Cl)cc2[nH]c1=O` stands inactive: -12.1%; under `CCC[N+](C)(C)c1ccc(/C=C/c2ccncc2)cc1`, inactive: -34.5%; under `Cn1c(SCC2CCCO2)nnc1C1CCN(Cc2ccc(-c3cccc(Cl)c3)o2)CC1` (stereo unspecified), inactive: -4.89%. Under `CCCC1CC(C(=O)N[C@H](C(C)O)C2OC(SC)[C@@H](O)C(O)C2O)N(C)C1` (stereo partly specified) stands inactive: 3.83%. Regarding `CCC(CO)NCCNC(CC)CO` (stereo unspecified), the activation is inactive: -6.66%. Under `CCCCCCCC/C=C\CCCCCCCCOC[C@H](COP(=O)([O-])OCC[N+](C)(C)C)OC(C)=O` stands inactive: -25.4%; under `Fc1ccc(CN(C2=NCCN2)c2c(Cl)cccc2Cl)cc1`, inactive: -18.3%. Under `CC(=O)Nc1ccc(/C=C/c2ccccn2)cc1` stands inactive: -32.8%; under `O=c1c(CCc2ccccc2)nc2cnc(N3CCNCC3)nc2n1Cc1cccs1`, inactive: -12%. Consider `IC(I)I`, for which the activation is inactive: 5.04%. Regarding `CN1C(=O)c2ccccc2C1=O`, the activation is inactive: -8.55%. With `CC(=O)[C@H](CC(C)C)NC(=O)[C@@H](CC(C)C)NC(=O)[C@H](CC(C)C)NC(=O)OCc1ccccc1`, the activation is inactive: -10.3%. As to `COc1ccccc1-c1ccc2ncnc(N(C)Cc3ccco3)c2c1`, the activation was inactive: -2.37%. Then `O=S1(=O)CCOCCCN1Cc1ccccc1Br`, with inactive: -32.5%.

As to `CC[C@@H]1C(=O)[C@H](Cc2ccccc2)[C@H]2CCCC(=O)N3CC[C@@H]1[C@@H]23`, the activation is inactive: -22.4%. For `Cc1cccc(CNC(=O)c2cnn(-c3nccc(-c4ccccc4C(F)(F)F)n3)c2C)n1`, the activation is inactive: -10.7%. Under `COc1ccccc1-c1ccnc(-n2ncc(C(=O)N(C)C(C)c3ccon3)c2C2CC2)n1` (stereo unspecified) stands inactive: -9.56%. Then `COc1ccc(NC(=O)N2CC[C@@]3(CCCN(C(=O)c4ccco4)C3)C2)cc1`, with inactive: -17.6%. Then `Cc1noc(C)c1C(=O)N1CCC2(CCN(C(=O)NC(C)C)CC2)CC1`, with inactive: -9.65%. As to `Cc1cnc(CNc2cc(-c3ccoc3)ncn2)cn1`, the activation was inactive: 14%.

Regarding `COc1cc(C)c(CN2CCC3(CCC(CNC(=O)c4ccnn4C)O3)CC2)cc1C` (stereo unspecified), the activation was inactive: 3.87%.
